The supplement of paper PMC12217912
Some of the results follow. The full chains were built here from the parent and the listed change. Values near 0.05 are background.

B1: TEV protease; numbered along this chain (parent)
chain: MGESLFKGPRDYNPISSSICHLTNESDGHTTSLYGIGFGPFIITNKHLFRRNNGTLVVQSLHGVFKVKDTTTLQQHLVDGRDMIIIRMPKDFPPFPQKLKFREPQREERICLVTTNFQTKSMSSMVSDTSCTFPSGDGIFWKHWIQTKDGQCGSPLVSTRDGFIVGIHSASNFTNTNNYFTSVPKNFMELLTNQEAQQWVSGWRLNADSVLWGGHKVFMVKPEEPFQPVKEATQL

Variants of: B1
Assay: raw area under fraction-flipped curve 0-4 h after induction (AUC4h, not background-subtracted), DNA-recorder readout of cleavage of the substrate (dimensionless); higher = more cleavage of the substrate by the protease variant
Conditions: temperature: 34 °C; time window: 0-4 h after rhamnose induction
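Further: Bxb1 expression induced with 0.2% (w/v) L-rhamnose at OD600 near 0.5, cultures sampled hourly, flipped fraction per protease–substrate barcode pair counted by paired-end Illumina sequencing.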

**Q.** For MGESLFKGPRDYNPISSSICHLTNESDGHTTSLYGIGFGPFIITNKHLFRRNNGTLVVQSLHGVFKVKDTTTLQQHLVDGRDMIIIRMPKDFPPFPQKLKFREPQREERICLVTTNFQTKSMSSMVSDTSCTFPSGDGIFWKHWIQTKDGQCGSPLVSTRDGFIVGIHSPSNFTNTNNYFTSVPKNFMELLTNQEAQQWVSGWRLNADSVLWGGHKVFMVKPEEPFQPVKEATQL [A170P], which “area with substrate ECLYFQS” value is on record?
**A.** 0.0463

**Q.** And the “area with substrate EDLYFQS” value?
**A.** 0.0554

**Q.** And the “area with substrate EQLYFQS” value?
**A.** 0.0553

**Q.** What about the “area with substrate ERLYFQS” value of the same variant?
**A.** 0.0778

**Q.** What about the “area with substrate ESLYFQS” value of the same variant?
**A.** 0.0456

**Q.** Which “area with substrate ECLYFQS” value does the source give for MGESLFKGPRDYNPISSSICHLTNESDGHTTSLYGIGFGPFIITNKHLFRRNNGTLVVQSLHGVFKVKDTTTLQQHLVDGRDMIIIRMPKDFPPFPQKLKFREPQREERICLVTTNFQTKSMSSMVSDTSCTFPSGDGIFWKHWIQTKDGQCGSPLVSTRDGFIVGIHSARNFTNTNNYFTSVPKNFMELLTNQEAQQWVSGWRLNADSVLWGGHKVFMVKPEEPFQPVKEATQL [S171R] here?
**A.** 0.0793

**Q.** And the “area with substrate EDLYFQS” value?
**A.** 0.136

**Q.** And the “area with substrate EELYFQS” value?
**A.** 0.11

**Q.** And the “area with substrate EHLYFQS” value?
**A.** 0.0959

**Q.** What about the “area with substrate EKLYFQS” value of the same variant?
**A.** 0.0686

**Q.** What about the “area with substrate EPLYFQS” value of the same variant?
**A.** 0.0947

**Q.** What about the “area with substrate ERLYFQS” value of the same variant?
**A.** 0.0945

**Q.** And the “area with substrate ESLYFQS” value?
**A.** 0.0935

**Q.** And the “area with substrate ETLYFQS” value?
**A.** 0.106

**Q.** And the “area with substrate EVLYFQS” value?
**A.** 0.0775

**Q.** With MGESLFKGPRDYNPISSSICHLTNESDGHTTSLYGIGFGPFIITNKHLFRRNNGTLVVQSLHGVFKVKDTTTLQQHLVDGRDMIIIRMPKDFPPFPQKLKFREPQREERICLVTTNFQTKSMSSMVSDTSCTFPSGDGIFWKHWIQTKDGQCGSPLVSTRDGFIVGIHSASDFTNTNNYFTSVPKNFMELLTNQEAQQWVSGWRLNADSVLWGGHKVFMVKPEEPFQPVKEATQL [N172D] as the variant, how does the “area with substrate ECLYFQS” value read?
**A.** 0.0846

**Q.** And the “area with substrate EDLYFQS” value?
**A.** 0.0916

**Q.** And the “area with substrate EGLYFQS” value?
**A.** 0.087

**Q.** And the “area with substrate ELLYFQS” value?
**A.** 0.0777

**Q.** And the “area with substrate EPLYFQS” value?
**A.** 0.0958

**Q.** What about the “area with substrate EQLYFQS” value of the same variant?
**A.** 0.0809

**Q.** What about the “area with substrate ESLYFQS” value of the same variant?
**A.** 0.0575

**Q.** What about the “area with substrate ETLYFQS” value of the same variant?
**A.** 0.0951

**Q.** What does the source list for MGESLFKGPRDYNPISSSICHLTNESDGHTTSLYGIGFGPFIITNKHLFRRNNGTLVVQSLHGVFKVKDTTTLQQHLVDGRDMIIIRMPKDFPPFPQKLKFREPQREERICLVTTNFQTKSMSSMVSDTSCTFPSGDGIFWKHWIQTKDGQCGSPLVSTRDGFIVGIHSASNPTNTNNYFTSVPKNFMELLTNQEAQQWVSGWRLNADSVLWGGHKVFMVKPEEPFQPVKEATQL [F173P]?
**A.** area with substrate ECLYFQS: 0.0851; area with substrate EELYFQS: 0.12; area with substrate EHLYFQS: 0.085; area with substrate EILYFQS: 0.0776; area with substrate EKLYFQS: 0.0766; area with substrate ESLYFQS: 0.0874; area with substrate ETLYFQS: 0.0866; area with substrate EVLYFQS: 0.0935; area with substrate EYLYFQS: 0.0907

**Q.** Which “area with substrate ECLYFQS” value does the source give for MGESLFKGPRDYNPISSSICHLTNESDGHTTSLYGIGFGPFIITNKHLFRRNNGTLVVQSLHGVFKVKDTTTLQQHLVDGRDMIIIRMPKDFPPFPQKLKFREPQREERICLVTTNFQTKSMSSMVSDTSCTFPSGDGIFWKHWIQTKDGQCGSPLVSTRDGFIVGIHSASNFMNTNNYFTSVPKNFMELLTNQEAQQWVSGWRLNADSVLWGGHKVFMVKPEEPFQPVKEATQL [T174M] here?
**A.** 0.105

**Q.** And the “area with substrate EDLYFQS” value?
**A.** 0.0883

**Q.** And the “area with substrate EGLYFQS” value?
**A.** 0.107

**Q.** What about the “area with substrate EILYFQS” value of the same variant?
**A.** 0.0805

**Q.** And the “area with substrate ELLYFQS” value?
**A.** 0.0871

**Q.** What about the “area with substrate EMLYFQS” value of the same variant?
**A.** 0.143

**Q.** What about the “area with substrate EPLYFQS” value of the same variant?
**A.** 0.122

**Q.** What about the “area with substrate ERLYFQS” value of the same variant?
**A.** 0.0856

**Q.** What about the “area with substrate ESLYFQS” value of the same variant?
**A.** 0.0926

**Q.** What about the “area with substrate ETLYFQS” value of the same variant?
**A.** 0.0836

**Q.** What about the “area with substrate EVLYFQS” value of the same variant?
**A.** 0.101

**Q.** And the “area with substrate EYLYFQS” value?
**A.** 0.087

**Q.** With MGESLFKGPRDYNPISSSICHLTNESDGHTTSLYGIGFGPFIITNKHLFRRNNGTLVVQSLHGVFKVKDTTTLQQHLVDGRDMIIIRMPKDFPPFPQKLKFREPQREERICLVTTNFQTKSMSSMVSDTSCTFPSGDGIFWKHWIQTKDGQCGSPLVSTRDGFIVGIHSASNFTNTWNYFTSVPKNFMELLTNQEAQQWVSGWRLNADSVLWGGHKVFMVKPEEPFQPVKEATQL [N177W] as the variant, how does the “area with substrate ECLYFQS” value read?
**A.** 0.0656

**Q.** What about the “area with substrate EDLYFQS” value of the same variant?
**A.** 0.0752

**Q.** What about the “area with substrate EKLYFQS” value of the same variant?
**A.** 0.0669

**Q.** And the “area with substrate ELLYFQS” value?
**A.** 0.0501

**Q.** What about the “area with substrate EMLYFQS” value of the same variant?
**A.** 0.0789

**Q.** What about the “area with substrate EQLYFQS” value of the same variant?
**A.** 0.0883

**Q.** What about the “area with substrate ERLYFQS” value of the same variant?
**A.** 0.062

**Q.** And the “area with substrate ESLYFQS” value?
**A.** 0.0605

**Q.** What about the “area with substrate EYLYFQS” value of the same variant?
**A.** 0.0818

**Q.** Which “area with substrate ECLYFQS” value does the source give for MGESLFKGPRDYNPISSSICHLTNESDGHTTSLYGIGFGPFIITNKHLFRRNNGTLVVQSLHGVFKVKDTTTLQQHLVDGRDMIIIRMPKDFPPFPQKLKFREPQREERICLVTTNFQTKSMSSMVSDTSCTFPSGDGIFWKHWIQTKDGQCGSPLVSTRDGFIVGIHSASNFTNTNPYFTSVPKNFMELLTNQEAQQWVSGWRLNADSVLWGGHKVFMVKPEEPFQPVKEATQL [N178P] here?
**A.** 0.0552

**Q.** What about the “area with substrate EELYFQS” value of the same variant?
**A.** 0.0555

**Q.** And the “area with substrate EKLYFQS” value?
**A.** 0.0618

**Q.** And the “area with substrate ELLYFQS” value?
**A.** 0.051

**Q.** What about the “area with substrate EQLYFQS” value of the same variant?
**A.** 0.0652

**Q.** And the “area with substrate ESLYFQS” value?
**A.** 0.052

**Q.** With MGESLFKGPRDYNPISSSICHLTNESDGHTTSLYGIGFGPFIITNKHLFRRNNGTLVVQSLHGVFKVKDTTTLQQHLVDGRDMIIIRMPKDFPPFPQKLKFREPQREERICLVTTNFQTKSMSSMVSDTSCTFPSGDGIFWKHWIQTKDGQCGSPLVSTRDGFIVGIHSASNFTNTNNYFNSVPKNFMELLTNQEAQQWVSGWRLNADSVLWGGHKVFMVKPEEPFQPVKEATQL [T181N] as the variant, how does the “area with substrate ECLYFQS” value read?
**A.** 0.0684

**Q.** And the “area with substrate EDLYFQS” value?
**A.** 0.0806

**Q.** And the “area with substrate EHLYFQS” value?
**A.** 0.0496

**Q.** What about the “area with substrate EILYFQS” value of the same variant?
**A.** 0.0556

**Q.** And the “area with substrate EKLYFQS” value?
**A.** 0.0728

**Q.** And the “area with substrate EPLYFQS” value?
**A.** 0.0823

**Q.** And the “area with substrate ERLYFQS” value?
**A.** 0.0689

**Q.** What about the “area with substrate ESLYFQS” value of the same variant?
**A.** 0.0776

**Q.** What about the “area with substrate EVLYFQS” value of the same variant?
**A.** 0.0727

**Q.** With MGESLFKGPRDYNPISSSICHLTNESDGHTTSLYGIGFGPFIITNKHLFRRNNGTLVVQSLHGVFKVKDTTTLQQHLVDGRDMIIIRMPKDFPPFPQKLKFREPQREERICLVTTNFQTKSMSSMVSDTSCTFPSGDGIFWKHWIQTKDGQCGSPLVSTRDGFIVGIHSASNFTNTNNYFQSVPKNFMELLTNQEAQQWVSGWRLNADSVLWGGHKVFMVKPEEPFQPVKEATQL [T181Q] as the variant, how does the “area with substrate ECLYFQS” value read?
**A.** 0.0605

**Q.** What about the “area with substrate EILYFQS” value of the same variant?
**A.** 0.066

**Q.** And the “area with substrate EKLYFQS” value?
**A.** 0.0132

**Q.** What about the “area with substrate ELLYFQS” value of the same variant?
**A.** 0.0573

**Q.** And the “area with substrate EQLYFQS” value?
**A.** 0.0545

**Q.** What about the “area with substrate ERLYFQS” value of the same variant?
**A.** 0.069

**Q.** What about the “area with substrate ESLYFQS” value of the same variant?
**A.** 0.0638

**Q.** For MGESLFKGPRDYNPISSSICHLTNESDGHTTSLYGIGFGPFIITNKHLFRRNNGTLVVQSLHGVFKVKDTTTLQQHLVDGRDMIIIRMPKDFPPFPQKLKFREPQREERICLVTTNFQTKSMSSMVSDTSCTFPSGDGIFWKHWIQTKDGQCGSPLVSTRDGFIVGIHSASNFTNTNNYFTSVPRNFMELLTNQEAQQWVSGWRLNADSVLWGGHKVFMVKPEEPFQPVKEATQL [K185R], which “area with substrate ECLYFQS” value is on record?
**A.** 0.0975

**Q.** And the “area with substrate EMLYFQS” value?
**A.** 0.13

**Q.** And the “area with substrate EQLYFQS” value?
**A.** 0.102

**Q.** And the “area with substrate ESLYFQS” value?
**A.** 0.114

**Q.** And the “area with substrate EWLYFQS” value?
**A.** 0.0989
